According to article PMC12136788:
The other results are listed elsewhere or left out.

T1: UNK ZnF1-3 (human, UniProt Q9C0B0 31-174)
T1 sequence: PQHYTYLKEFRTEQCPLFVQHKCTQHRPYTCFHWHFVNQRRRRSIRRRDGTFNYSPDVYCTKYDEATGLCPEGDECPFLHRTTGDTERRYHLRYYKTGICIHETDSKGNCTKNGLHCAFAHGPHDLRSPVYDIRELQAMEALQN

B1: 32046403_32047425_1754_CDS_ENSMUSG00000024400_ENSMUST00000025264|mouse|control|control (ssRNA)
RNA: GGGAGUUCUACAGUCCGACGAUCUAACUUAAUAUCCUCUUUCCUGUCAUUCAGCACCUCAUUUGGAGCAGGAAUUGGGACUUUAUUUUGCAUCCAGGCCUGCUGGAACUGGGCAGGAAUGGGCUUCGCAUAGGGGACUUUCUUCAACAGAGGAUUGAGCAUCA
B2: 77714292_77722976_382_3pUTR_ENSMUSG00000025427_ENSMUST00000026494|mouse|control|control (ssRNA)
RNA: GGGAGUUCUACAGUCCGACGAUCGGGGUGGACAGACACUCGAUCCUGAUUCCGCCUGGGAUGCGAGACGAGCCUGCGGUGCUGAGCUUCCAGGAGCUGCUGCUGCAGCAGGUAUUGCUGGUGCAGGGCCUGAGGUAGGAAGGACAACAGAGGAUUGAGCAUCA
B3: chr11:115359427:115359428:-_ENSMUSG00000020737_ENSMUST00000021083|mus_mus|motif|central (ssRNA)
RNA: GGGAGUUCUACAGUCCGACGAUCUCCCAAGCAUGGGACAACAAACAGACAGACAGAAGGACAGAGUUCCAACACAAGAAGCGGACCCAAGACCAGGCUGGACUUGCCGCCAGGGGGGUUUCUCCUGGAUGGCACUGGGGCUGGCAACAGAGGAUUGAGCAUCA
B4: 157159236_157160167_481_CDS_ENSG00000105993_ENST00000429029|human|control|control (ssRNA)
RNA: GGGAGUUCUACAGUCCGACGAUCAAAUGAAAAUGGGUCCCUUCCACCAAAAAAUUCCCUGAAGACAUCAUCUGGGUUACGGAAUGUGAAGCCAAAUUCAAAUGGACUGUCAAAAUGACUUCCACCUCCUCCUCCACCAUUUAACAACAGAGGAUUGAGCAUCA
B5: 59627789_59627909_950_CDS_ENSMUSG00000039585_ENSMUST00000128341|mouse|control|control (ssRNA)
RNA: GGGAGUUCUACAGUCCGACGAUCUAAGAGAGUUUUCUCAUUCAAAUCAGGCAAGCUACAUAAAUCAUCAAAGUCUUUCUGUUGAGGCUGUGGAAGAAAACCCCGCUCCAUCAUCCUGCGGCGUUCUUCGGUUACCCGUAGCCACAACAGAGGAUUGAGCAUCA
B6: chr7:54823571:54823572:-_ENSG00000132432_ENST00000352861|hu_mus|hu_hu_hu_mus_False|1_108 (ssRNA)
RNA: GGGAGUUCUACAGUCCGACGAUCUCCCAUUAUAGCAAAUCCUAUAGCUGUAGCCAUGGCAAUCUUCUGGAAUUCUUUUCUGUCGGGUUUGGUGCAUCUUUUAACCAGCCGAAUUGAGUCCUUUACAAACUGCCGGCUUGGCUCCAACAGAGGAUUGAGCAUCA
B7: chrX:140365796:140365797:-_ENSMUSG00000031285_ENSMUST00000033642|mus_mus|mus_mus_mus_hu_False|38_38 (ssRNA)
RNA: GGGAGUUCUACAGUCCGACGAUCCUUCUCAUUACUCAGUGCCUGCAAGGUUCUGGUUCGGUAGAAGCUACAGUGGGCGCUGUGAGUGGGGCUAGGCAGUCCAUUCAUCCGGGAGCCUCGCAUGUUCCUGGAUGUCUUAUCUCUCAACAGAGGAUUGAGCAUCA
B8: chr17:26875717:26875718:-_ENSG00000109103_ENST00000335765|hu_hu|FALSE|FALSE (ssRNA)
RNA: GGGAGUUCUACAGUCCGACGAUCCCGAAUCUUAAACCUGACAAAGUCGAUCUUGUAGAUAUUCUCCUCAGGGGAGCAGAGGUAGUCACCGGUGAUCCGCUGCAGCCCCAGCACGUCCUCCGGCCCGAUCGGCUGCUUCCUCUGCAACAGAGGAUUGAGCAUCA
B9: chr8:104447970:104447971:+_ENSG00000164934_ENST00000297579|hu_hu|hu_hu_hu_mus_False|48_68 (ssRNA)
RNA: GGGAGUUCUACAGUCCGACGAUCAUACACUUCCCUGCUUCGGCUCUUGUCCACAGGAAAGAUUCUAAUAGAUUUAUCAAAGCUGGCAGACACAAACUCCUUCCCAGUGGGAGAGUAGUCCACAUCAAGUACUGCAGACACGUGCAACAGAGGAUUGAGCAUCA
B10: chr5:37680062:37680063:+_ENSMUSG00000029121_ENSMUST00000031004|mus_hu|mus_mus_mus_hu_False|48_58 (ssRNA)
RNA: GGGAGUUCUACAGUCCGACGAUCUUUGGGUGUAGCUGGUACCUCGUACACAGGACCGUCAUACAUGCCCCUGGAAACACUAUGCAACCCGAAAACCUUAUUCCUGAUUUUGACGCGCUGGUACAGGUGCUCCGGGAACGCCUUCAACAGAGGAUUGAGCAUCA
B11: chr2:148695906:148695907:-_ENSG00000115947_ENST00000542387|hu_mus|FALSE|FALSE (ssRNA)
RNA: GGGAGUUCUACAGUCCGACGAUCCACCAUUUGAAAAUUAAAGGGCUCCUCUUCAUAUAUGUCAUUUAAAUGUUUCAUUGCUAUUAUAAGACAGAUUUCCAAGACUGACAGACCAUGUACAAUAUUCGCCUUAGAAUCCAAGCUCAACAGAGGAUUGAGCAUCA
B12: 112063845_112063965_144_3pUTR_ENSG00000091972_ENST00000383681|human|control|control (ssRNA)
RNA: GGGAGUUCUACAGUCCGACGAUCACCCCAUGGUUCUCGCUGAAGGUGACCAUGUUUUCUGGGCUUACAGCUUUCUUUUUCUGCCAUGUCACAAUGAGGGCUUCCUGGGCAUUUUGCAGAGAGCAUUUUAAGGAAGCAGGUGUGCAACAGAGGAUUGAGCAUCA
B13: chr1:151372964:151372965:+_ENSG00000159377_ENST00000290541|hu_hu|FALSE|FALSE (ssRNA)
RNA: GGGAGUUCUACAGUCCGACGAUCCUUCGAGCGCCGGCUGUACAUGGCCCUGGUCAGCCAUGAAUGAAUAGCUCUAGGACUAUAGCUGUGUCCAUCUCCCAGAAGCUCCUCAUCAAUCACCAUCUGGCCGAGAACUUGCUUCAACAACAGAGGAUUGAGCAUCA
B14: chr4:138453181:138453182:-_ENSG00000189184_ENST00000344876|hu_hu|FALSE|FALSE (ssRNA)
RNA: GGGAGUUCUACAGUCCGACGAUCGUUCCUCAUAAAUCCUGUAUUUCAAAUUCUUGCCCAGUACAUCGUGGUUGAAAGAUACUAUCAGAAGUGCAAAAACAAACCUAAAGUGCAUUUUAGCAUUCAUUUGGUGCAUUGGUCAGUCAACAGAGGAUUGAGCAUCA

Target: T1, UNK ZnF1-3
Assay: nsRBNS (natural sequence RNA bind-n-seq); RBNS binding buffer (assumed for nsRBNS): 25 mM Tris pH 7.5, 150 mM KCl, 3 mM MgCl2, 0.01% Triton X-100, 500 ug/ml BSA, 20 U/ml SUPERase-In, 4 C; UNK is unkempt and MSI1 is Musashi-1; names of the RNAs are library labels; protein concentration not given here; high values mean tight binding

Binder | binding signal [enrichment R]
B1 | 0.714
B2 | 0.814
B3 | 0.999
B4 | 1.29
B5 | 0.987
B6 | 0.79
B7 | 0.452
B8 | 0.74
B9 | 1.03
B10 | 0.654
B11 | 2.27
B12 | 0.781
B13 | 1.06
B14 | 1.08
